Hit rate of the full screen: of about 46,000 compounds, about 60 (0.1%) were called active. About 3% were inconclusive and are not listed. Calls follow the shape of the dose curve; as a rule, active = well fitted inhibition curve with a large enough effect; inconclusive = small, poorly fitted or top-dose-only effect; inactive = no such curve, though single readings can be large or run the other way. The list shows a part of the results.
Test: Primary qHTS assay for Inhibitors of ovarian cancer metastasis using an organotypic tumor microenvironment (TME) model. Also: nearly all actives have a fitted effect of over 65% in size.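 As to Potency: count of GFP cancer cells still attached after washing and fixation.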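 As to activity change, negative = inhibition: plate controls were DMSO wells for no effect and tomatine positive control wells for full effect.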
Settings: SKOV3ip1-GFP adhesion/invasion on 3D omental model, fluorescence; series mostly up to 45.8 µM; activity change, negative = inhibition: at the top concentration
In short: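 A 3D layer of primary human omental fibroblasts, mesothelial cells, fibronectin and collagen I, grown 48 hr, received SKOV3ip1-GFP cells in serum-free medium plus compounds at 0.36-46 umol/L. After 2 hr RT and 16 hr 37 C, fixed adherent GFP cells were counted; normalized to DMSO and tomatine.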
Potency is read from the fitted curve at half-maximal effect.

Row | SMILES | outcome | activity change, negative = inhibition | Potency
1 | CCOC(=O)c1cc(S(=O)(=O)Nc2ccc(Br)c(C)c2)[nH]n1 | inactive | – | –
2 | COc1cc(C2c3c(oc4cc(C)c(C)cc4c3=O)C(=O)N2CCCN2CCOCC2)ccc1O (stereo not given) | inactive | – | –
3 | COc1ccc(Br)cc1CNC(=O)c1cc2ccccn2n1 | – | inactive: -9.88% | –
4 | CCOc1cccc2cc(-c3nc4sc5c(c4c(=O)[nH]3)CCC(C(C)(C)C)C5)c(=O)oc12 (stereo not given) | inactive | – | –
5 | COc1ccc(Br)cc1CNC(=O)c1cc(=O)[nH]c2ccc(S(=O)(=O)N3CCCC3)cc12 | – | inactive: 5.15% | –
6 | CCOc1ccc(-n2c(SCc3nc(-c4ccc(OC)cc4)no3)nnc2-c2ccncc2)cc1 | – | inactive: 8.2% | –
7 | CCCNC(=O)c1cc2nc(-c3ccc(Br)cc3)cc(C(F)(F)F)n2n1 | inactive | – | –
8 | Cc1nc2ccccc2n1CCc1nc2c3ccccc3nc(SCc3cccc(F)c3)n2n1 | – | inactive: -1.15% | –
9 | O=C(COC(=O)c1cc(-c2cccs2)nc2ccccc12)c1ccc(Br)cc1 | – | inactive: 3.13% | –
10 | CCOc1ccccc1NC(=O)Cn1c(=O)n(CCC(C)C)c(=O)c2cccnc21 | – | inactive: 7.93% | –
11 | COc1ccc(CCNC(=O)CCn2c(=O)c3ccccc3n(CC(=O)Nc3ccccc3F)c2=O)cc1OC | – | inactive: -7.04% | –
12 | CC(C)(C)c1ccc(C2Sc3ccccc3NC3=C2C(=O)c2ccccc23)cc1 (stereo not given) | – | inactive: 0.13% | –
13 | Cc1ccc2c(=O)c(C(=O)c3ccccc3)cn(CC(=O)Nc3ccc4c(c3)OCCO4)c2n1 | – | inactive: -4.14% | –
14 | O=C1CN(C(=O)Cc2ccc(F)cc2)C(c2ccccc2)c2cc(Br)ccc2N1 (stereo not given) | – | inactive: -1.79% | –
15 | Cc1ccc(NC(=O)Cn2nc(C)c3nn(-c4ccc(Cl)cc4)c(C)c3c2=O)cc1C | – | inactive: -5.34% | –
16 | Cn1c(=O)oc2cc(S(=O)(=O)N3CCC(C(=O)NCc4ccccc4Cl)CC3)ccc21 | – | inactive: -27.1% | –
17 | CCOc1ccc(NC(=O)CC2C(=O)N(c3ccccc3)C(=O)N2CCc2ccc(OC)cc2)cc1 (stereo not given) | – | inactive: -6.27% | –
18 | COC(=O)c1cnn(-c2ccc(C(=O)Nc3cccc(C(C)=O)c3)cc2)c1N | – | inactive: -6.32% | –
19 | COc1ccc(Cn2c(C(=O)O)c(CNCc3cccc(OC)c3)c3ccc(C)cc32)cc1 | – | inactive: -7.27% | –
20 | O=C1c2oc3ccccc3c(=O)c2C(c2ccc(Br)cc2)N1c1ccccn1 (stereo not given) | inactive | – | –
21 | CCCCN(CC)CCNC(=O)Cn1cnc2sc(C)c(S(=O)(=O)N3CCC(C)CC3)c2c1=O | – | inactive: 0.568% | –
22 | CCc1nn(CC(=O)N2CCN(c3cccc(C)c3C)CC2)c(=O)c2cc3occc3n12 | inactive | – | –
23 | Cc1cccc(N2CCN(C(=O)C3CCC(CNS(=O)(=O)c4ccc(Br)s4)CC3)CC2)c1C (stereo not given) | inactive | – | –
24 | COc1ccc(N2C(=O)CSC23C(=O)N(CC(=O)NC2CCCCC2)c2ccccc23)cc1 (stereo not given) | – | inactive: -2.3% | –

Row | SMILES | outcome | activity change, negative = inhibition | Potency
25 | Cc1cccc(OCc2cc(=O)n3c(-c4ccccc4)csc3n2)c1C | inactive | – | –
26 | CCCn1c(SCc2nc(-c3ccccc3C)no2)nnc1-c1ccc(Cl)cc1 | – | inactive: -0.0973% | –
27 | CCOC(=O)c1[nH]c(C)c(CCC(=O)Nc2c(C)cc(C)cc2C)c1C | – | inactive: 3.89% | –
28 | CC(=O)c1ccc(N2CCN(S(=O)(=O)c3c(C)nc4sc(C)cn4c3=O)CC2)cc1 | – | inactive: 0.613% | –
29 | CCC(Oc1ccccc1)C(=O)Nc1ccc(O)c(-c2nc3cc(C)ccc3o2)c1 (stereo not given) | – | inactive: 6.29% | –
30 | CCC(C(=O)Nc1ccccc1C(=O)OC)n1c(C)c2cnn(-c3ccccc3)c(=O)c2c1C (stereo not given) | inactive | – | –
31 | O=C(CN1C(=O)CCSc2ccc(S(=O)(=O)N3CCCC3)cc21)Nc1ccccc1 | inactive | – | –
32 | CCn1cc(C(=O)NCCCOC(C)C)c(=O)c2cc(S(=O)(=O)N3CCc4ccccc4C3)ccc21 | – | inactive: -22.7% | –
33 | CCCCn1cc(S(=O)(=O)c2ccc(C)c(C)c2)c(=O)c2cc(F)c(N3CCN(C)CC3)cc21 | – | inactive: 3.87% | –
34 | NC(=O)CSc1oc(-c2ccco2)nc1S(=O)(=O)c1ccc(Br)cc1 | – | inactive: 0.0792% | –
35 | CCc1nnc(NC(=O)c2nc(S(=O)(=O)Cc3cccc(C)c3)ncc2Cl)s1 | – | – | active: 12.6 µM
36 | CCc1nn(CC(=O)NC(C)CCc2ccccc2)c(=O)c2cc3cc(F)ccc3n12 (stereo not given) | – | inactive: 2.82% | –
37 | O=C(Cn1cc(S(=O)(=O)Cc2ccccc2Cl)c2ccccc21)NCc1ccccc1Cl | – | inactive: 0.292% | –
38 | COc1cccc(NC(=O)CCS(=O)(=O)c2ccc3c(c2)oc(=O)n3C)c1 | inactive | – | –
39 | COc1ccc(NC(=O)Cn2c(=O)n(CCCC(=O)NCc3ccccc3OC)c(=O)c3ccccc32)cc1Cl | inactive | – | –
40 | Cn1c(NCCCCO)nc2c1c(=O)n(Cc1ccc(Cl)cc1)c(=O)n2C | – | inactive: 0.0009% | –
41 | CCN(c1ccccc1)S(=O)(=O)c1cc(-c2onc(C)c2C)ccc1OC | – | inactive: -8.62% | –
42 | Cc1ccc(C)c(Cn2c(C(C)NC(=O)c3ccc(F)cc3)nc3ccccc32)c1 (stereo not given) | inactive | – | –
43 | CCOc1ccccc1NC(=O)CCS(=O)(=O)c1cccc2nsnc12 | inactive | – | –
44 | Cc1c2cnn(CC(=O)N3CCN(c4ccccc4)CC3)c(=O)c2c(C)n1Cc1ccc(F)cc1 | – | inactive: -33.6% | –
45 | COCCn1c(CCC(=O)Nc2cc(C)ccc2C)nc2cccnc21 | – | inactive: -0.148% | –
46 | Cc1ccc(Nc2ncnc3c2cnn3-c2ccccc2)c(C)c1 | – | inactive: 1.89% | –
47 | Cc1cccc(-c2noc(CCCC(=O)NCc3ccco3)n2)c1 | – | inactive: -2.09% | –
48 | Cc1cccc(N2CCN(C(=O)C3CCCN(S(=O)(=O)c4cccc5nsnc45)C3)CC2)c1C (stereo not given) | inactive | – | –

Row | SMILES | outcome | activity change, negative = inhibition | Potency
49 | O=C1CC(c2ccccc2)Cc2[nH]c(=O)c(C(=O)Nc3ccc(OC(F)(F)F)cc3)cc21 (stereo not given) | – | inactive: -33.8% | –
50 | CCn1c(=O)c2sccc2n2c(CCCC(=O)N3CCN(c4ccc(OC)cc4)CC3)nnc12 | – | inactive: 16.5% | –
51 | CCOCCCNC(=O)C(c1ccccc1)N(Cc1cccs1)C(=O)c1ccc(NC(C)=O)cc1 (stereo not given) | – | inactive: -5.93% | –
52 | COc1ccc(N2CCN(C(=O)c3c(C)oc4ncnc(N5CCCCC5)c34)CC2)cc1 | – | inactive: -11.6% | –
53 | CCc1cccc(NC(=O)c2nnn(Cc3ccc(SC)cc3)c2N)c1 | – | inactive: 8.92% | –
54 | COc1cccc(N2C(=O)C(CC(=O)Nc3ccc(Cl)cc3)N(Cc3ccc4c(c3)OCO4)C2=O)c1 (stereo not given) | – | inactive: 6.09% | –
55 | CC(C(=O)O)c1cccc(C(=O)c2ccccc2)c1 (stereo not given) | – | inactive: 7.03% | –
56 | O=C(Nc1ccc(Br)cc1)C1CCCN(S(=O)(=O)c2ccc(Br)s2)C1 (stereo not given) | – | inactive: -22.7% | –
57 | Cn1c(=O)c2c(SCC(=O)N3CCc4ccccc43)nc(-c3cccc(F)c3)nc2n(C)c1=O | – | inactive: -9.18% | –
58 | CCOc1ccccc1CNC(=O)C1CCN(S(=O)(=O)c2cccc3nonc23)CC1 | inactive | – | –
59 | CCc1ccccc1NC(=O)C(CC)Sc1ncnc2c1sc1ccccc12 (stereo not given) | inactive | – | –
60 | O=C(CCCCCn1c(=O)[nH]c2ccccc2c1=O)NCc1cccc(Cl)c1 | – | inactive: -0.663% | –
61 | Cc1ccc(NC(=O)CN2C(=O)C(c3ccc(F)cc3)=NC23CCCCC3)c(C)c1 | inactive | – | –
62 | CCOc1ccc(S(=O)(=O)N2CCN(c3cc(Cl)ccc3Cl)CC2)c2ccccc12 | inactive | – | –
63 | O=c1[nH]c2ccc(NCc3ccc(-c4cccc(Cl)c4)o3)cc2[nH]1 | – | inactive: -5.06% | –
64 | CCOc1ccccc1NC(=O)CSc1nc2c(c(=O)[nH]1)CCC2 | – | inactive: -5.41% | –
65 | CCOc1cccc2cc(-c3cn4c(n3)sc3cc(C)ccc34)c(=O)oc12 | inactive | – | –
66 | Cc1ccnc(NS(=O)(=O)c2ccc(NC(=O)C(C)(C)Oc3ccc(Cl)cc3)cc2)n1 | inactive | – | –
67 | COc1ccc(OCc2nc3ccccc3n2C(C)c2ccccc2)cc1 (stereo not given) | – | inactive: 23.3% | –
68 | Cc1ccccc1OC(=O)c1snnc1C | – | inactive: 15.7% | –
69 | O=C(Cc1ccccc1)N(Cc1cccnc1)c1nc2c(F)cccc2s1 | – | inactive: 9.11% | –
70 | O=C(Nc1ccc(Cl)cc1F)c1oc(=O)c2ccccc2c1-c1ccccc1 | – | inactive: -8.13% | –
71 | O=C(NCc1ccc(Cl)cc1)c1ccc(CSCc2cccc(Cl)c2)o1 | – | inactive: -23.9% | –
72 | CCC(C(=O)Nc1ccc(C(=O)OC)cc1)n1nc(-c2ccc(C)cc2)c2c(c1=O)CCCC2 (stereo not given) | inactive | – | –

Row | SMILES | outcome | activity change, negative = inhibition | Potency
73 | CCOc1cc(C2Nc3ccccc3-c3nnc(SCc4ccccc4)nc3O2)ccc1OC (stereo not given) | – | inactive: 4.39% | –
74 | Cc1cc(Br)ccc1NC(=O)C(Cc1ccccc1)NS(=O)(=O)c1ccc(Br)s1 (stereo not given) | inactive | – | –
75 | C=C(C)Cn1c(SCC(=O)c2ccc(OC)cc2)nc2sc3c(c2c1=O)CCCC3 | inactive | – | –
76 | OCCn1cc(-c2ccc3c(c2)CCC3=NO)c(-c2ccncc2)n1 | – | inactive: 11.9% | –
77 | Cc1ccc(OCC(=O)Nc2cccc(OCc3cc(=O)n4ccccc4n3)c2)cc1C | inactive | – | –
78 | Nc1nc(Nc2cccc(C(F)(F)F)c2)sc1C(=O)c1ccccc1 | – | inactive: -7.27% | –
79 | Cc1cc(C)c2c(CC(=O)Nc3ccc(S(=O)(=O)N4CCCC(C)C4)cc3)coc2c1 (stereo not given) | – | inactive: 0.643% | –
80 | C#CCn1c(COc2ccccc2C)nc2ccccc21 | – | inactive: -28.8% | –
81 | COc1cccc(CNC(=O)c2cc3cccc4c3n2CC(C)S4)c1OC (stereo not given) | – | inactive: -11% | –
82 | CCN(Cc1ccccc1)C(=O)C1CCN(c2ncnc3c2nc2n3CCCCC2)CC1 | – | inactive: 20.5% | –
83 | Cc1cccc(N(C)C(=O)CN2C(=O)COc3ccc(S(=O)(=O)N4CCCCCC4)cc32)c1 | inactive | – | –
84 | Cn1c(CNC(=O)CSc2n[nH]c(-c3ccccc3Cl)n2)nc2ccccc21 | – | inactive: -1.73% | –
85 | COc1cc(OC)c(OC)cc1CNCCSc1nnnn1-c1ccccc1 | – | inactive: 4.17% | –
86 | Cc1ccc(-n2cc(-c3ccccc3)c3c(NC4CCCC4)ncnc32)cc1 | – | inactive: -9.45% | –
87 | Cc1ccc(-c2noc(-c3ccc(N4CCC(C)CC4)c([N+](=O)[O-])c3)n2)cc1 | inactive | – | –
88 | COc1cc2c(=O)c(S(=O)(=O)c3ccc(F)cc3)cn(Cc3ccccc3C)c2cc1OC | inactive | – | –
89 | O=C(c1ccc(Br)cc1)N(Cc1cccs1)c1ccc(F)cc1 | inactive | – | –
90 | CN1CCN(C(=O)Cn2ncc3c4ccccc4n(Cc4ccc(F)cc4)c3c2=O)CC1 | – | inactive: -7.21% | –
91 | COc1cc2c(cc1OC)C(COc1ccc(F)cc1)N(C(=O)c1cccc(F)c1)CC2 (stereo not given) | – | inactive: 21.4% | –
92 | Cc1nc2nc(SCC(=O)Nc3ccccc3Cl)nn2c(C)c1Cc1ccccc1 | inactive | – | –
93 | COc1ccc(-c2cnc(C)o2)cc1S(=O)(=O)Nc1ccc(F)cc1F | inactive | – | –
94 | COc1cc(OC)c(NC(=O)c2cn(C3CCCC3)c(=O)c3c2c2ccccc2n3C)cc1Cl | – | inactive: 4.69% | –
95 | Cc1cc(N(CCO)Cc2ccccc2)n2nc(-c3ccc(C(C)(C)C)cc3)nc2n1 | – | inactive: -4.1% | –

From PubChem BioAssay AID1963576 (National Center for Advancing Translational Sciences (NCATS), 2024)
